The values that follow come from paper PMC4336329 (PLoS ONE, 2015).

The whole screen tested about 310,000 compounds, of which about 14,000 (4.5%) showed an effect of 50% or more. Effects have a minus sign here. This is one part of the list.
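Note: peak tail current of the secondary pulse compared with the same well before compound.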

The target of the assay is human ether-à-go-go-related gene (hERG) potassium channel (human, UniProt Q12809). Briefly: primary screen, population patch clamp on CHO cells stably expressing hERG.
human ether-à-go-go-related gene (hERG) potassium channel, sequence (Q12809 whole entry, looked up): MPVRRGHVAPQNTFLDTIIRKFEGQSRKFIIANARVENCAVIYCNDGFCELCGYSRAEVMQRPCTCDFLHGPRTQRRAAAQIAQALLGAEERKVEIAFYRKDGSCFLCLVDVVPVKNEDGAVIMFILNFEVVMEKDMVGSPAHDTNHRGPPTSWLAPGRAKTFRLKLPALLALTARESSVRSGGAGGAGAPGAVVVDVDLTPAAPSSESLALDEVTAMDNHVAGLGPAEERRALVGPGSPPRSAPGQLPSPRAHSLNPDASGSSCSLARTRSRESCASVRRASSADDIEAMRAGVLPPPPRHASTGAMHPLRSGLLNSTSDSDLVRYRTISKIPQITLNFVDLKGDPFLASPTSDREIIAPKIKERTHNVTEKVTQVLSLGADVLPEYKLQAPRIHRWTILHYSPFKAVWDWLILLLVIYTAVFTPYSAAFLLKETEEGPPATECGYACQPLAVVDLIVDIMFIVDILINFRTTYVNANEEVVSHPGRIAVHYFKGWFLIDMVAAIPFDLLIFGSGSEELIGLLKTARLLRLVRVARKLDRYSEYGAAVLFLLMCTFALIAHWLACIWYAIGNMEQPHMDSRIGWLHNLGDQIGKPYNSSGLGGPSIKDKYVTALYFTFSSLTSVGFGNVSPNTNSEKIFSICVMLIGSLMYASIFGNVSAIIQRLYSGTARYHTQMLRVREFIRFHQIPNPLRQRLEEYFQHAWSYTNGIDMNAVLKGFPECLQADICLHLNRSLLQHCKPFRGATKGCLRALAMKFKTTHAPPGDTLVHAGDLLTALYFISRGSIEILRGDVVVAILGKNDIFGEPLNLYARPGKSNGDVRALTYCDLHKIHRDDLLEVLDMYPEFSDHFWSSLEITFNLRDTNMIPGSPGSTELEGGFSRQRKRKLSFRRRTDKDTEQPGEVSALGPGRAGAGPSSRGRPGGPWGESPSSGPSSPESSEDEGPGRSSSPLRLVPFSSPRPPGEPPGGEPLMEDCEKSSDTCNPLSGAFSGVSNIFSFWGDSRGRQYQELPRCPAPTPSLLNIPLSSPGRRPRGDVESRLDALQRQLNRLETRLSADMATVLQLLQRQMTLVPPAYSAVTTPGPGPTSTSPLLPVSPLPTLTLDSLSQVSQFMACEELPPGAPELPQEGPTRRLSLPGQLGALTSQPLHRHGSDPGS
Take `Cn1c(CCNC(=O)c2ccco2)nc2cc(NC(=O)c3ccco3)ccc21`: the “hERG current change (%, negative = inhibition) at 10uM” value is -14.4%.
Regarding `O=C(Cc1cccc2ccccc12)N/N=C/c1ccc(F)cc1`, the “hERG current change (%, negative = inhibition) at 10uM” value came to 13%.
The result for `O=C1NC(=O)C(=Cc2ccc(N3CCOCC3)cc2)C(=O)N1` reads 12.9%.
In the case of `Cc1ccc(S(=O)(=O)Nc2ccc3ccccc3n2)cc1`, the “hERG current change (%, negative = inhibition) at 10uM” value turned out to be 5.01%.
For `c1ccc2sc(NN=C3CCCCCC3)nc2c1`, the “hERG current change (%, negative = inhibition) at 10uM” value is on record as -0.287%.
The result for `Cc1ccc(-c2nnc(SCC(=O)N3CC(C)CC(C)C3)o2)cc1C` (stereo not drawn) reads -13.8%.
The result for `O=C(O)/C=C\C(=O)NC1CCCCC1` reads 9.82%.
On to `Cc1ccccc1C(=O)NC=C1C(=O)OC(C)(C)OC1=O`, for which the “hERG current change (%, negative = inhibition) at 10uM” value was 16%.
The result for `Cc1nn(Cc2ccccc2Cl)c(C)c1NC(=O)c1noc2c1CCCCC2` reads -13.8%; that for `CCOC(=O)C1(C(F)(F)F)N=C(N(C)C)OC(N(C)C)=N1`, 5.29%; that for `Cl.O.Oc1cc2c(cc1O)[C@H]1c3ccccc3CN[C@@H]1CC2`, -2.93%.
On to `CCOC(=O)N1CCN(c2c(N3CCc4ccccc43)c(=O)c2=O)CC1`, for which the “hERG current change (%, negative = inhibition) at 10uM” value is -33.6%.
The result for `CCCN(CCC)C(=O)c1ccc2c(c1)N(CC)C(=O)c1ccccc1S2(=O)=O` reads -9.18%; that for `COc1cccc(-c2ccc(=O)n(CC(=O)Nc3ccc(S(=O)(=O)NCC(C)C)cc3)n2)c1`, 7.04%.
The result for `COc1ccc(-c2cc3ccccc3n2CC(O)CN2CCCCC2)cc1.O=C(O)C(=O)O` (stereo not drawn) reads -79.6%.
The result for `COc1ccc(NC(=O)NC2CCCc3ccccc32)cc1` (stereo not drawn) reads 3.03%; that for `COc1ccc(C(=O)C[n+]2cccc(C(N)=O)c2)cc1.[Br-]`, 17.8%.
With `O=C(NC1CCCC1)c1ccccc1OCc1ccccc1`, the “hERG current change (%, negative = inhibition) at 10uM” value is given as -39.6%.
The result for `CN(CC(=O)Nc1ccccc1C(=O)NC1CC1)Cc1ccco1` reads 1.63%; that for `O=C(NCCc1cnc[nH]1)c1cccs1`, 18.2%; that for `Nc1nnnn1/N=C/c1cccc(OCc2ccccc2Cl)c1`, 20.2%.
`Cl.c1ccc(CNc2ncnc3ccccc23)cc1`: the “hERG current change (%, negative = inhibition) at 10uM” value came out at 4.3%.
The result for `NC(=O)Nc1ccc(C(=O)OCC(=O)N2CCCC2=O)cc1` reads 14.6%; that for `COc1ccc(CNCc2cccc(OC)c2OC)cc1Br.O=C(O)C(=O)O`, -34.8%.
The result for `COc1ccccc1-n1ccn(CC(=O)Nc2ccc(C)cc2Cl)c(=O)c1=O` reads -23%; that for `CCOc1ccc(OCCC(=O)OCC(=O)NCc2ccc(Cl)cc2)cc1`, 8.85%; that for `O=C(NCc1ccc(F)cc1)C1CCC(CNS(=O)(=O)c2ccccc2)CC1` (stereo not drawn), 0.947%.
Regarding `CCc1ccc(Nc2ncnc3nc[nH]c23)cc1`, the “hERG current change (%, negative = inhibition) at 10uM” value is -10.3%.
The result for `CCCN(CCC)C(=O)Nc1ccc(F)cc1F` reads 23.4%.
The result for `COc1ccc(NC(=O)c2cc3cc(OC)ccc3oc2=O)cc1` reads -0.497%; that for `CC(C)C(=O)Nc1ccccc1-c1nc2ccccc2[nH]c1=O`, -15.8%; that for `CC(C)N(Cc1nc(-c2ccccc2)no1)C(=O)CN(C)S(=O)(=O)c1ccccc1`, -1.52%.
The result for `Nc1cc2c(cc1[N+](=O)[O-])OCCOCCOCCO2` reads 0.413%; that for `CCCn1c(N)c(N(CCOC)C(=O)c2ccccc2)c(=O)[nH]c1=O`, 17%.
For the compound `CCOC(=O)C(Cc1c[nH]c2ccccc12)NC(=O)c1ccccc1Br` (stereo not drawn), the “hERG current change (%, negative = inhibition) at 10uM” value amounted to 6.02%.
For `OCCOCCn1c(C(CO)Nc2nc(-c3ccccc3Br)cs2)nc2ccccc21` (stereo not drawn), the “hERG current change (%, negative = inhibition) at 10uM” value is -72%.
The result for `O=C(Nc1ccc(Cl)c(Cl)c1)Nc1ccccc1C(=O)O` reads 25%.
In the case of `O=C(NC1CCOCC1)C1CCC(=O)N(Cc2cccc(C(F)(F)F)c2)C1` (stereo not drawn), the “hERG current change (%, negative = inhibition) at 10uM” value is listed as 13.7%.
The result for `Cc1ccccc1Nc1nc(N)nc(CN2C(=O)NC3(CCCCC3C)C2=O)n1` (stereo not drawn) reads -12.4%; that for `CC1CN(Cc2ccc(C#N)cc2Cl)CC(C)O1.Cl` (stereo not drawn), 0.479%.
`CC(=O)c1cccc(NC(=O)Cn2cnc(S(=O)(=O)N3CCc4ccccc43)c2)c1`: the “hERG current change (%, negative = inhibition) at 10uM” value amounted to 17.1%.
The result for `CC(NC(=O)COC(=O)c1ccco1)c1ccccc1` (stereo not drawn) reads -12%.
`O=C(CSc1ccccc1)Nc1cccc(S(=O)(=O)N2CCCCC2)c1`: the “hERG current change (%, negative = inhibition) at 10uM” value was -19.6%.
The result for `O=C1CC(Cc2ccccc2)C(=O)N1c1ncccn1` (stereo not drawn) reads 2.7%; that for `CC(=O)c1ccc(N/C=C\C(=O)c2ccc(C)cc2)cc1`, 26.5%.
The result for `COc1ccccc1NC(=O)C1CCCN(S(=O)(=O)c2cccc3nsnc23)C1` (stereo not drawn) reads -10.2%; that for `Cc1cccc(/C=C/C(=O)c2ccc(N3CCOCC3)cc2)c1`, 5.94%; that for `Cc1ccc(-n2ncc3c(=O)[nH]c(SCC(=O)N4CCCC4)nc32)cc1C`, -1.75%.
The result for `O=C(CC1C(=O)NCCN1Cc1ccccc1)NCCC1=CCCCC1` (stereo not drawn) reads 9.47%; that for `Cc1cc(C)nc(Nc2nc3ccccc3o2)n1`, -11.3%; that for `CCOC(=O)N1CCN(C(=O)c2ccc(CS(=O)c3ccccc3)o2)CC1` (stereo not drawn), 9.81%.
As to `CC1(C)CC(N(Cc2ccccc2)C(=O)Cc2ccccc2)CCO1` (stereo not drawn), the “hERG current change (%, negative = inhibition) at 10uM” value is 3.84%.
Take `CC1CCCCN1C(=O)C1CC(c2ccc(F)cc2)=NO1` (stereo not drawn): the “hERG current change (%, negative = inhibition) at 10uM” value is on record as -16.7%.
Consider `CCOc1ccc(NC(=O)CN2CCN(CC(=O)Nc3ccc(F)cc3)CC2)cc1`, for which the “hERG current change (%, negative = inhibition) at 10uM” value is -77.2%.
The result for `CCN(CC)CCNC(=O)COc1ccc(OC)cc1` reads 2.22%.
The result for `CC(C)CCNCC1OCc2ccccc2CO1.Cl` reads -8.5%; that for `Cc1ccc(OC(C)C(=O)N/N=C/c2ccccn2)cc1` (stereo not drawn), 13.2%.
The result for `CCOC(=O)c1ccc(NC2OC(=O)c3ccccc32)cc1` (stereo not drawn) reads -0.927%.
`O=C(/C=C(\c1ccc(Cl)cc1)n1cncn1)c1ccc(Cl)cc1`: the “hERG current change (%, negative = inhibition) at 10uM” value was determined as 2.44%.
The result for `CC(=O)c1ccc2c(c1)C1C(Cl)C(Sc3ccccc3[N+](=O)[O-])CC1C(C(=O)O)N2` (stereo not drawn) reads -20.8%.
